Test results from a collection of fitness landscapes (doi:10.1016/j.celrep.2020.107928).
Over roughly 81,000 sequences, “one-hybrid fitness for binding NBS DNA” has its median near -0.1; the highest 2% begin near 0.36. The list shows a part of the results.

B1: Caulobacter ParB omega fusion; a variant is named by its letters at X, in order, B8GW30 (parent)
chain: MESVVVGEPGMSEGRRGLGRGLSALLGEVDAAPAQAPGEQLGGSREAPIEILQRNPDQPRRTFREEDLEDLSNSIREKGVLQPILVRPSPDTAGEYQIVAGERAWRAAQRAGLKTVPIMVRELDDLAVLEIGIIENVQRADLNVLEEALSYKVLMEKFERTQENIAQTIGKSXSHVANXMRLLXLPDEVQSYLVSGELTAXHARAIAAAADPVALAKQIIEGGLSVRETEALARKAPNLSAGKSKGGRPPRVKDTDTQALESDLSSVLGLDVSIDHRGSTGTLTITYATLEQLDDLCNRLTRGI

Variants of: B1
Test: one-hybrid fitness for binding NBS DNA (the Noc-binding site; scaled: cognate 1, non-cognate 0); higher = stronger binding
Settings: with NBS DNA site
How it was run: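 Fitness is the rescaled log change in variant-to-wild-type read ratio, measured by Illumina sequencing of plasmids before and after bacterial one-hybrid selection. The scale puts cognate at 1 and non-cognate at 0. Selection of Caulobacter ParB libraries, four specificity codons randomised, took place in E. coli USO with a HIS3 reporter, site 19 bp from the promoter, over 48 hours at 37°C on M9-minus-histidine with 0.1 mM IPTG and 5 mM 3-AT.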

Variant | one-hybrid fitness for binding NBS DNA
WYSC | ≤ 0.2
KSVS | ≤ 0.2
CHKP | ≤ 0.2
MANT | ≤ 0.2
RTVN | ≤ 0.2
ACAY | ≤ 0.2
SHTF | ≤ 0.2
LKVS | ≤ 0.2
QGHL | ≤ 0.2
PDKC | ≤ 0.2
MPFG | ≤ 0.2
SLDN | ≤ 0.2
PHSM | ≤ 0.2
GNCC | ≤ 0.2
WRLV | ≤ 0.2
QGLK | ≤ 0.2
TEVT | ≤ 0.2
HQAA | ≤ 0.2
EWQR | ≤ 0.2
SIVF | ≤ 0.2
QFDM | ≤ 0.2
RAPD | ≤ 0.2
QHAL | ≤ 0.2
IHYA | ≤ 0.2
RMKS | 0.598

Variant | one-hybrid fitness for binding NBS DNA
AASR | ≤ 0.2
SHWS | ≤ 0.2
MLAC | ≤ 0.2
TKSS | ≤ 0.2
GTEM | ≤ 0.2
PACV | ≤ 0.2
TFRY | ≤ 0.2
VLEI | ≤ 0.2
QRSS | 0.659
FCYG | ≤ 0.2
RFAD | ≤ 0.2
ERWR | ≤ 0.2
QKPP | ≤ 0.2
QNES | ≤ 0.2
WCPG | ≤ 0.2
QTIV | ≤ 0.2
DLSP | ≤ 0.2
TAYP | ≤ 0.2
TYYA | ≤ 0.2
KIFR | ≤ 0.2
QLPS | ≤ 0.2
LHMV | ≤ 0.2
ICNR | ≤ 0.2
PTSG | ≤ 0.2
EYSS | ≤ 0.2

Variant | one-hybrid fitness for binding NBS DNA
ALWC | ≤ 0.2
TWNV | ≤ 0.2
GSAM | ≤ 0.2
LASC | ≤ 0.2
KCML | ≤ 0.2
WYVR | ≤ 0.2
QDRI | ≤ 0.2
SHAS | ≤ 0.2
QTHK | 0.293
ILVP | ≤ 0.2
HCKL | ≤ 0.2
DASQ | ≤ 0.2
VQKV | ≤ 0.2
IIMS | ≤ 0.2
KGCT | ≤ 0.2
WALR | ≤ 0.2
HHHI | ≤ 0.2
DTAR | ≤ 0.2
HVVC | ≤ 0.2
NFRT | ≤ 0.2
TTCR | ≤ 0.2
EKLT | ≤ 0.2
WLFT | ≤ 0.2
QPTE | ≤ 0.2
WLCG | ≤ 0.2

Variant | one-hybrid fitness for binding NBS DNA
QAIY | ≤ 0.2
KCTI | ≤ 0.2
RCDH | ≤ 0.2
AMIC | ≤ 0.2
GLRV | ≤ 0.2
AEPD | ≤ 0.2
PSGV | ≤ 0.2
LVHT | ≤ 0.2
HLHM | ≤ 0.2
QLHN | ≤ 0.2
EMRS | ≤ 0.2
YMAE | ≤ 0.2
RTYV | ≤ 0.2
TKVW | ≤ 0.2
HDNM | ≤ 0.2
YQIW | ≤ 0.2
PRMI | ≤ 0.2
LKAC | ≤ 0.2
AAET | ≤ 0.2
VQVS | ≤ 0.2
SGLL | ≤ 0.2
RNNT | 0.289
PAQV | ≤ 0.2
VRKI | ≤ 0.2
LNPS | ≤ 0.2

Variant | one-hybrid fitness for binding NBS DNA
LQHR | ≤ 0.2
EPES | ≤ 0.2
LWDR | ≤ 0.2
RHMY | ≤ 0.2
EGSY | ≤ 0.2
IFKG | ≤ 0.2
RSTE | ≤ 0.2
WIPH | ≤ 0.2
IHKG | ≤ 0.2
ARMH | ≤ 0.2
HAIS | ≤ 0.2
QFYM | ≤ 0.2
MIFG | ≤ 0.2
PVAE | ≤ 0.2
SHMK | ≤ 0.2
AYHA | ≤ 0.2
NMLG | ≤ 0.2
HLQF | ≤ 0.2
RMCE | ≤ 0.2
REAS | ≤ 0.2
RWQW | ≤ 0.2
KTMG | ≤ 0.2
GYFC | ≤ 0.2
ESNW | ≤ 0.2
PGEG | ≤ 0.2

Variant | one-hybrid fitness for binding NBS DNA
IDVT | ≤ 0.2
LQLN | ≤ 0.2
RPCT | ≤ 0.2
HTNC | ≤ 0.2
EPMR | ≤ 0.2
STQK | ≤ 0.2
HPTT | ≤ 0.2
TLQF | ≤ 0.2
AKAV | ≤ 0.2
VGSC | ≤ 0.2
PRMC | ≤ 0.2
GAGT | ≤ 0.2
PFPR | ≤ 0.2
DSRT | ≤ 0.2
KFHG | ≤ 0.2
CFSR | ≤ 0.2
DSKA | ≤ 0.2
GMRD | ≤ 0.2
LNAM | ≤ 0.2
CERM | ≤ 0.2
FDAG | ≤ 0.2
IYVY | ≤ 0.2
IRYG | ≤ 0.2
CYEG | ≤ 0.2
RHPR | ≤ 0.2

Variant | one-hybrid fitness for binding NBS DNA
QPAI | ≤ 0.2
TQAN | ≤ 0.2
TGTT | ≤ 0.2
QHSQ | ≤ 0.2
RASL | ≤ 0.2
NAHS | ≤ 0.2
QVNP | ≤ 0.2
ALSD | ≤ 0.2
FNLT | ≤ 0.2
IQPW | ≤ 0.2
NMTE | ≤ 0.2
SPAQ | ≤ 0.2
NWTG | ≤ 0.2
MRSS | ≤ 0.2
CRCF | ≤ 0.2
HHYC | ≤ 0.2
GGVW | ≤ 0.2
PRTT | ≤ 0.2
TAVG | ≤ 0.2
MVKM | ≤ 0.2
FGSG | ≤ 0.2
ACQG | ≤ 0.2
DSYK | ≤ 0.2
VDNL | ≤ 0.2
KVRL | ≤ 0.2

Variant | one-hybrid fitness for binding NBS DNA
KSKY | ≤ 0.2
MYYG | ≤ 0.2
LYAA | ≤ 0.2
ILYV | ≤ 0.2
KVYM | ≤ 0.2
SDYW | ≤ 0.2
RVIV | ≤ 0.2
IHPG | ≤ 0.2
KLGA | ≤ 0.2
QWAA | ≤ 0.2
LIRV | ≤ 0.2
MADA | ≤ 0.2
RRME | ≤ 0.2
RMNC | ≤ 0.2
MQLG | ≤ 0.2
QNRM | ≤ 0.2
QPGR | ≤ 0.2
WHHG | ≤ 0.2
SKAN | ≤ 0.2
MPMW | ≤ 0.2
